The results in this text go back to the supplement of paper PMC9446081.

Structures are written as SMILES. The whole screen tested about 39,000 compounds, of which about 220 (0.56%) showed activity. This is one part of the list.
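Further: static incubation at 37 °C against the wild-type strain, values averaged over two biological replicates.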

This assay deals with Escherichia coli K-12 BW25113. The assay is described as follows: relative growth (OD600 normalised to plate interquartile mean) (fraction); higher = less growth inhibition, active = 0.2 or less. The following applies: 50 µM; LB; incubation time: overnight (16-24 h).
For `COc1ccc(NC(=O)Nc2ccc3c(c2)C(=O)N([C@@H](C)CO)C[C@H](C)[C@@H](CN(C)Cc2ccc4c(c2)OCO4)OCCCC[C@H](C)O3)cc1`, the relative growth is inactive: 0.994. The result for `S=c1[nH]cn[nH]1` reads inactive: 0.991. With `Cc1ccc(S(=O)(=O)N2C[C@H](O)COC[C@H]3O[C@@H](CC(=O)N4CCc5ccccc5C4)CC[C@@H]32)cc1` the figure was inactive: 0.988; with `COc1ccc(C(=O)O)c(O)c1OC`, inactive: 1.03; with `COc1ccc(NC(=O)Nc2ccc3c(c2)C(=O)N([C@@H](C)CO)C[C@@H](C)[C@@H](CN(C)C(=O)NC(C)C)OCCCC[C@@H](C)O3)cc1`, inactive: 0.98. Turning to `COCc1cc(C)nc(N)c1C#N`, the relative growth was inactive: 0.976. With `COCC#Cc1ccc2c(c1)O[C@H](CN(C)Cc1ccc3c(c1)OCO3)[C@H](C)CN([C@H](C)CO)S2(=O)=O` the figure was inactive: 1.01; with `CC12CCC(=O)C=C1CCC1C2C(O)CC2(C)C1CCC2(O)C(=O)CO` (stereo unspecified), inactive: 1.03; with `C[C@H](CO)N1C[C@H](C)[C@@H](CN(C)C(=O)C2CCOCC2)Oc2cc(-c3ccc(F)cc3)ccc2S1(=O)=O`, inactive: 1.01. With `COC(=O)CN1C(=O)COc2ccc(C)cc21` the figure was inactive: 0.983; with `Cc1noc(C)c1S(=O)(=O)N(C)C[C@@H]1OCCCC[C@@H](C)Oc2ccc(NC(=O)Nc3ccccc3)cc2C(=O)N([C@H](C)CO)C[C@H]1C`, inactive: 0.972; with `COc1cccc(C(=O)Nc2ccc3c(c2)C(=O)N(C)[C@H]2CC[C@H](CC(=O)NCC(F)(F)F)O[C@@H]2CO3)c1`, inactive: 1.04.

Regarding `C[C@@H]1CN([C@@H](C)CO)C(=O)c2cccc(NS(=O)(=O)c3ccc(Cl)cc3)c2O[C@H]1CN(C)Cc1ccc(Cl)c(Cl)c1`, the relative growth is inactive: 1.05.

For `C[C@H](CO)N1C[C@H](C)[C@H](CN(C)Cc2ccc(C(=O)Nc3ccccc3N)cc2)Oc2ccc(NS(C)(=O)=O)cc2CC1=O`, the relative growth is inactive: 1. The result for `C[C@@H]1CN([C@H](C)CO)C(=O)c2cc(NS(C)(=O)=O)ccc2O[C@H]1CN(C)Cc1ccc(C(=O)O)cc1` reads inactive: 0.984; that for `CN1CCN(C(=O)C[C@@H]2CC[C@H]3[C@@H](COC[C@@H](O)CN3C(=O)Nc3cc(Cl)cc(Cl)c3)O2)CC1`, inactive: 0.927; that for `C[C@H](CO)N1C[C@H](C)[C@H](CN(C)C(=O)C2CCOCC2)Oc2cc(-c3ccc(F)cc3)ccc2S1(=O)=O`, inactive: 0.897.

Turning to `COc1ccc(NC(=O)N(C)C[C@H]2OCCCC[C@@H](C)Oc3ccc(NC(=O)C4CCCCC4)cc3C(=O)N([C@H](C)CO)C[C@H]2C)cc1`, the relative growth was inactive: 0.992. With `COc1ccc(S(=O)(=O)Nc2ccc3c(c2)CC(=O)N([C@H](C)CO)C[C@@H](C)[C@H](CN(C)S(=O)(=O)c2ccc(F)cc2)O3)cc1` the figure was inactive: 1.01; with `CN(C)CCCNC(=O)C[C@@H]1CC[C@@H]2[C@H](COC[C@H](O)CN2S(=O)(=O)c2ccc(Cl)cc2)O1`, inactive: 1; with `COCC#Cc1ccc([C@@H]2[C@@H](CO)N3C(=O)CN(C(=O)CN4CCOCC4)C[C@@H]23)cc1`, inactive: 1. With `Cc1nc(COP(=O)(O)O)cc2c1[O][Mn][O]c1c(cc(COP(=O)(O)O)nc1C)CN(CC(=O)O)CCN(CC(=O)O)C2` the figure was inactive: 0.971. With `CCCNC(=O)N1C[C@@H](O)COC[C@H]2O[C@@H](CC(=O)NCCCN3CCOCC3)CC[C@@H]21` the figure was inactive: 0.989; with `C[C@H]1CCCCO[C@@H](CN(C)Cc2ccc3c(c2)OCO3)[C@@H](C)CN([C@@H](C)CO)C(=O)c2cc(NC(=O)CCC(F)(F)F)ccc2O1`, inactive: 0.995; with `COCCCN1C(=O)[C@@]2(Cc3ccccc31)c1ccccc1C(=O)N(C1CCCCC1)[C@H]2c1ccc(CO)cc1`, inactive: 0.954. `C[C@H](CO)N1C[C@H](C)[C@@H](CN(C)C(=O)NC2CCCCC2)Oc2c(NC(=O)c3cnccn3)cccc2C1=O`: the relative growth was inactive: 0.992. With `Cc1ccnc(NC(=O)Cn2cnc3c2c(=O)n(C)c(=O)n3C)c1` the figure was inactive: 0.996. The result for `C[C@H](CO)N1C[C@H](C)[C@@H](CN(C)C(=O)CN2CCOCC2)Oc2cc(Br)ccc2S1(=O)=O` reads inactive: 0.882; that for `CCCN(C)C[C@H]1OCCCC[C@@H](C)Oc2ccc(NS(=O)(=O)c3cn(C)cn3)cc2C(=O)N([C@H](C)CO)C[C@@H]1C`, inactive: 1.01; that for `O=C(NO)c1ccc(C(=O)N/N=C/[C@H](O)[C@@H](O)[C@H](O)CO)cc1`, inactive: 1.02.

Turning to `CN1CCN(C(=O)C[C@H]2C[C@@H]3c4cc(NC(=O)c5ccc6c(c5)OCO6)ccc4O[C@@H]3[C@@H](CO)O2)CC1`, the relative growth is inactive: 0.997. With `O=C(C[C@H]1CC[C@H]2[C@@H](COC[C@@H](O)CN2S(=O)(=O)c2ccccc2)O1)NCCN1CCCCC1` the figure was inactive: 1.02; with `CC(C)NC(=O)Nc1ccc2c(c1)CC(=O)N([C@H](C)CO)C[C@H](C)[C@H](CN(C)S(=O)(=O)c1ccc(Cl)cc1)O2`, inactive: 1.01; with `C[C@@H]1CCCCO[C@@H](CN(C)Cc2ccccc2)[C@@H](C)CN([C@H](C)CO)C(=O)c2cc(NC(=O)Nc3ccc4c(c3)OCO4)ccc2O1`, inactive: 0.951. In the case of `CC(C)NC(=O)Nc1ccc2c(c1)CC(=O)N([C@@H](C)CO)C[C@@H](C)[C@@H](CN(C)S(=O)(=O)c1ccc(F)cc1)O2`, the relative growth was inactive: 0.982.

Regarding `C[C@H]1CN([C@@H](C)CO)C(=O)Cc2cc(NC(=O)C3CCCCC3)ccc2O[C@H]1CN(C)S(=O)(=O)c1cn(C)cn1`, the relative growth is inactive: 1.01.

As for `Cc1ccc(S(=O)(=O)N(C)C[C@@H]2Oc3c(NC(=O)C4CC4)cccc3C(=O)N([C@@H](C)CO)C[C@H]2C)cc1`, the relative growth is inactive: 0.99. The result for `COC(=O)c1c2oc(c1C(=O)OC)C(=O)N[C@@H](Cc1ccccc1)Cn1cc(nn1)[C@H](Cc1ccccc1)NC(=O)N[C@@H](COC(=O)NCCCCCC(=O)NO)CC2` reads inactive: 0.904. With `CO[C@@H]1CN(C)C(=O)c2ccc(NC(=O)C3CC3)cc2OC[C@@H](C)N(C(=O)Cc2ccccn2)C[C@H]1C` the figure was inactive: 1; with `COCC(=O)Nc1ccc2c(c1)OC[C@@H](C)N(Cc1ccccc1OC)C[C@@H](C)[C@H](OC)CN(C)C2=O`, inactive: 1.01; with `C=CCNC(=O)[C@H]1[C@@H]2C(=O)O[C@@H](c3ccccc3)[C@@H](c3ccccc3)N2[C@@H](c2ccccc2OCCO)[C@]12C(=O)N(C(=O)OCCOC)c1ccc(C#CC3(O)CCCCCC3)cc12`, inactive: 1.02. With `C[C@@H]1CCCCO[C@H](CN(C)Cc2ccc(Cl)c(Cl)c2)[C@@H](C)CN([C@@H](C)CO)C(=O)c2cc(NC(=O)NC3CCCCC3)ccc2O1` the figure was inactive: 0.995; with `C[C@H](CO)N1C[C@H](C)[C@@H](CN(C)C(=O)Nc2ccc(C(F)(F)F)cc2)Oc2ccc(NC(=O)C3CCCCC3)cc2C1=O`, inactive: 0.999; with `C[C@@H]1CCCCO[C@H](CN(C)C(=O)Cc2ccccc2)[C@H](C)CN([C@@H](C)CO)C(=O)c2cc(NC(=O)Cc3ccccc3)ccc2O1`, inactive: 0.992. With `C[C@@H]1CN([C@@H](C)CO)C(=O)c2cc(NC(=O)Cc3cn(C)c4ccccc34)ccc2O[C@@H]1CN(C)S(C)(=O)=O`, the relative growth was inactive: 0.97.

As for `CC(=O)Oc1cc(C(C)C)c(OCCN(C)C)cc1C.Cl`, the relative growth is inactive: 0.951.

`O=C(C[C@H]1CC[C@@H]2[C@H](COC[C@H](O)CN2S(=O)(=O)c2ccccc2)O1)NCc1ccc2c(c1)OCO2`: the relative growth was inactive: 0.971. With `O=C(CCCCCCC(=O)N/N=C/[C@H](O)[C@@H](O)[C@@H](O)[C@H](O)CO)NO` the figure was inactive: 0.975; with `COc1ccc(CN(C)C[C@@H]2OCCCC[C@@H](C)Oc3ccc(NS(=O)(=O)c4ccc(OC)cc4)cc3C(=O)N([C@H](C)CO)C[C@H]2C)cc1`, inactive: 1.02.

In the case of `C[C@@H]1CN([C@@H](C)CO)C(=O)c2cc(NC(=O)NC3CCCCC3)ccc2O[C@@H](C)CCCCO[C@H]1CN(C)C(=O)CCC(F)(F)F`, the relative growth is inactive: 0.999. With `COc1oc(C(=O)NC2CCCCC2)c(-c2ccc(Cl)cc2)c1S(=O)(=O)c1ccc(C(F)(F)F)cc1[N+](=O)[O-]` the figure was inactive: 0.949; with `C[C@H]1CN([C@@H](C)CO)C(=O)CCCn2cc(nn2)CO[C@H]1CN(C)C(=O)c1ccc(N2CCN(C)CC2)cc1`, inactive: 0.987; with `C[C@@H]1CCCCO[C@@H](CN(C)C(=O)c2ccccc2)[C@@H](C)CN([C@@H](C)CO)C(=O)c2cc(NC(=O)Nc3ccc(C(F)(F)F)cc3)ccc2O1`, inactive: 1.01. On to `C[C@@H]1CN([C@H](C)CO)C(=O)c2cc(-c3cccc(C(=O)N(C)C)c3)cnc2O[C@H]1CN(C)S(=O)(=O)c1ccccc1`, for which the relative growth is inactive: 0.986. `C[C@@H]1CN([C@@H](C)CO)S(=O)(=O)c2ccc(C#Cc3ccncc3)cc2O[C@H]1CN(C)C(=O)c1ccncc1`: the relative growth was inactive: 0.99. The result for `Cn1cc(Cl)c(C(=O)O)n1` reads inactive: 1.03; that for `C[C@@H](NC(=O)C[C@H]1CC[C@@H](NC(=O)CN2CCOCC2)[C@H](CO)O1)c1ccccc1`, inactive: 1; that for `CC(C)NC(=O)Nc1ccc2c(c1)C(=O)N([C@@H](C)CO)C[C@H](C)[C@@H](CN(C)CC1CCCCC1)OCCCC[C@@H](C)O2`, inactive: 0.964. The result for `COc1ccc(S(=O)(=O)Nc2ccc3c(c2)CC(=O)N([C@@H](C)CO)C[C@H](C)[C@@H](CN(C)S(C)(=O)=O)O3)cc1` reads inactive: 0.976. The result for `CN(Cc1[nH]nc2c1CCCC2)C(=O)Cc1c[nH]c(=O)n(C)c1=O` reads inactive: 1.02; that for `O=c1cc(-c2cccc(O)c2)oc2ccc(O)cc12`, inactive: 0.982.
